Source: paper PMC4336329 (PLoS ONE, 2015)
Screen size: about 310,000 compounds; about 2,200 (0.71%) showed an effect of 50% or more. Effects have a minus sign here. The list shows a part of the results.

biological target: human ether-à-go-go-related gene (hERG) potassium channel (human, UniProt Q12809); test: primary screen, population patch clamp on CHO cells stably expressing hERG
Sequence (Q12809 whole entry, looked up): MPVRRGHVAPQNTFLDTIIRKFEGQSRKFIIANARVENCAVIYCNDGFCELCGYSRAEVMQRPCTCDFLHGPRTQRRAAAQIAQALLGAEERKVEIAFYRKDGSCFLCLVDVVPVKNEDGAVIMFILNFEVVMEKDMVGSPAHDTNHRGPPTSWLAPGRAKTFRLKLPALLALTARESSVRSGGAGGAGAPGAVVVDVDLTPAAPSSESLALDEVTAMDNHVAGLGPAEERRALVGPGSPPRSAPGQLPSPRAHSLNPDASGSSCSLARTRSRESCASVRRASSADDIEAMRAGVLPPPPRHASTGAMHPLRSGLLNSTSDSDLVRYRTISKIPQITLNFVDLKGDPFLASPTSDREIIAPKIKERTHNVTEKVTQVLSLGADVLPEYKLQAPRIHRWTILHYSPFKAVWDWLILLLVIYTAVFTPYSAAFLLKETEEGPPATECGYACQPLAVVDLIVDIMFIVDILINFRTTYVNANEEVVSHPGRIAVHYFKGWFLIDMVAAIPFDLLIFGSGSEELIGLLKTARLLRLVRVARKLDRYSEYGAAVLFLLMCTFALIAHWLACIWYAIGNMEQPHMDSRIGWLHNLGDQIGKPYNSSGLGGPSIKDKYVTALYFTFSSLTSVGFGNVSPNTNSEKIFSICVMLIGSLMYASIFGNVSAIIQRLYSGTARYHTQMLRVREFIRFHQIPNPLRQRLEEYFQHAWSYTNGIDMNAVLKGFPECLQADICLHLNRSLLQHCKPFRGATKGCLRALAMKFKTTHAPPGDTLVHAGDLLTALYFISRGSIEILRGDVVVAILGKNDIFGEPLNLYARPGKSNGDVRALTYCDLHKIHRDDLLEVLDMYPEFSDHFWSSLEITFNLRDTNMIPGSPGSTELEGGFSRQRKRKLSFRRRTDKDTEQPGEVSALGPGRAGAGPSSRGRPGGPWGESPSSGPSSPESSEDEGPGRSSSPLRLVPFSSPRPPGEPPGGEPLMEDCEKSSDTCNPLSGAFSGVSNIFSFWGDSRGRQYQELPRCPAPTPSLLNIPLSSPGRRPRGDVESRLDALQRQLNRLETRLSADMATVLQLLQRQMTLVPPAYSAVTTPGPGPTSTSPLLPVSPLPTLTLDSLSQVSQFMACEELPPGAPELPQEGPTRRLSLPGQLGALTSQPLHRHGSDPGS

SMILES | hERG current change (%, negative = inhibition) at 1uM
CCOc1cccc(C2C(C(=O)c3ccco3)=C(O)C(=O)N2Cc2ccncc2)c1 (stereo not shown) | 20.5%
CCOCCCNC(=O)c1ccc(NC(=O)C2=CSCCO2)cc1 | 14.6%
Cc1ccccc1C(=O)NC1CCN(CC(=O)Nc2ccc3c(c2)OCO3)CC1 | -11%
COc1ccc(N(C(=O)c2ccn[nH]2)C(C(=O)NC(C)(C)C)c2ccc(F)cc2)cc1 (stereo not shown) | 19.5%
CCc1ccccc1N1C(=O)C(Cl)=C(N2CCOCC2)C1=O | 16.2%
COCCn1c(SCc2cc(C(C)=O)ccc2OC)nc2cc(Cl)ccc2c1=O | 2.65%
Cc1cc(C)cc(C(=O)Nc2ccc(N3CCCC3)cc2)c1 | 8.36%
O=C1CN(C(=O)COC(=O)CCSc2ccccc2Cl)c2ccccc2N1 | 10.2%
COc1ccc(NC(=O)C2CC2)cc1S(=O)(=O)N1CCOCC1 | -18.8%
COc1ccc(S(=O)(=O)NC2CCCCCC2)c(OC)c1 | 8.39%
O=c1[nH]c(=S)n(Cc2ccc(F)cc2)c(O)c1C=NCc1cccnc1 | 7.39%
O=C(CNc1cccc2ccccc12)N/N=C/c1cccc(Oc2ccccc2)c1 | 14.8%
COc1cccc(NS(=O)(=O)c2c(C)n(C)c(=O)n(C)c2=O)c1 | -10.1%
N/C(=N\c1nc2c(c(=O)[nH]1)CCC2)Nc1ccccc1 | 3.8%
CCC1(C)Cc2c(sc3nc4n(c(=O)c23)CCCS4)CO1 (stereo not shown) | -2.06%
CC(C)=N/N=C(/c1ccc([N+](=O)[O-])cc1)C12CN3CN(CN(C3)C1)C2 | 7.82%
CCN1CCN(C(c2ccc(F)cc2)c2nnnn2Cc2cccs2)CC1 (stereo not shown) | -29.9%
Nc1ccc(-c2ccc(N)c(C(=O)O)c2)cc1C(=O)O | 1.09%
CN(C)C(=O)C1C2NC(=S)N(c3ccc(Cl)cc3)C1(C)Oc1ccc(Cl)cc12 (stereo not shown) | 11.5%
Cc1ccccc1-n1nc(C)c2c(C(=O)NN)cc(-c3ccncc3)nc21 | 10.5%
CC(=O)Nc1ccc(NC(=O)C/C(C)=N/NC(=O)c2cccc3ccccc23)cc1 | 8.03%
COc1cc(OC)c(OC)cc1/C=N/NC(=O)CSc1ccccc1F | 2.29%

SMILES | hERG current change (%, negative = inhibition) at 1uM
COc1ccc(NC(=O)N2CCC(n3cnc4ccccc43)CC2)cc1 | -8.51%
CC(C)(C)c1ccc(OCCCC(=O)Nc2ccc(S(N)(=O)=O)cc2)cc1 | 0.457%
CCOc1ccccc1OCC(=O)Nc1ccc(S(=O)(=O)Nc2nc(C)cc(C)n2)cc1 | 0.94%
COc1cc2c(cc1OC)CN(C(=O)CN1CCN(S(=O)(=O)c3ccccc3)CC1)CC2 | 4.2%
CCCOc1ccc(C(=O)NCCCn2ccnc2)cc1 | -1.56%
O=C(COC(=O)c1ccc(Br)o1)NCCNC(=O)COC(=O)c1ccc(Br)o1 | 13.4%
O=C(C[n+]1ccc(C(=O)c2ccccc2)cc1)Nc1ccc(C(F)(F)F)cc1.[Cl-] | 4.51%
CCOC(=O)COn1c(=O)c(-c2ccc(OC)c(OC)c2)[n+]([O-])c2ccccc21 | 3.94%
CCCn1c(SCC(=O)N(C)CC(=O)Nc2ccc(Cl)cc2)n[nH]c1=O | 2.06%
O=C(COC(=O)c1ccc(NS(=O)(=O)c2cccs2)cc1O)NCc1ccccc1 | 1.51%
COc1cccc(N2CC(C(=O)Oc3ccc4ccccc4c3)CC2=O)c1 (stereo not shown) | 5.81%
COC(=O)CCCC1=CC2=C(c3ccccc3)C(=O)C(C)(OC(=O)C3CCCC3)C(=O)C2=CN1CC1CC1 (stereo not shown) | -10.6%
CCC(=S)/C=C1\Sc2ccccc2N1CCCS(=O)(=O)[O-].[Na+] | 8.37%
CCOC(=O)c1sc2nc(C3CC3)cc(-c3ccc(F)cc3)c2c1N | 13.3%
Cc1cc(OC(C)C(=O)NCc2cccnc2)c2c3c(c(=O)oc2c1)CCC3 (stereo not shown) | 13%
CC(C)N(C)Cc1nnnn1CC(=O)N(C)Cc1cccc(Cl)c1 | 17.8%
CCSC1=N/C(=C\c2ccc3c(c2)OCO3)C(=O)S1 | 9.97%
CC(C)(C(=O)c1ccccc1)/[N+]([O-])=C/c1ccc(F)cc1 | 0.438%
COc1ccc(C2CC(=O)N3CN(Cc4ccco4)CSC3=C2C#N)cc1 (stereo not shown) | 11.6%
C/C(=N\NC(=O)C1CC1)c1ccc(C)cc1C | 10%
O=c1cc(CSc2nnc(COc3ccccc3Cl)o2)nc2sccn12 | -9.18%
